Source: a collection of fitness landscapes (doi:10.1126/science.1257360)
The other results are listed elsewhere or left out.

B1: PhoQ; a variant is named by its letters at X, in order, P23837 (parent)
chain: MKKLLRLFFPLSLRVRFLLATAAVVLVLSLAYGMVALIGYSVSFDKTTFRLLRGESNLFYTLAKWENNKLHVELPENIDKQSPTMTLIYDENGQLLWAQRDVPWLMKMIQPDWLKSNGFHEIEADVNDTSLLLSGDHSIQQQLQEVREDDDDAEMTHSVAVNVYPATSRMPKLTIVVVDTIPVELKSSYMVWSWFIYVLSANLLLVIPLLWVAAWWSLRPIEALAKEVRELEEHNRELLNPATTRELTSLVRNLNRLLKSERERYDKYRTTLTDLTHSLKTPLXXLQXXLRSLRSEKMSVSDAEPVMLEQISRISQQIGYYLHRASMRGGTLLSRELHPVAPLLDNLTSALNKVYQRKGVNISLDISPEISFVGEQNDFVEVMGNVLDNACKYCLEFVEISARQTDEHLYIVVEDDGPGIPLSKREVIFDRGQRVDTLRPGQGVGLAVAREITEQYEGKIVAGESMLGGARMEVIFGRQHSAPKDE

Variants of: B1
Assay: enrichment ratio after two sorts for PhoP signalling (ratio (wild type AVST 3.29)); higher = more functional
Details: with PhoP (E. coli)

| Variant | enrichment ratio |
| --- | --- |
| YMMH | ≤ 0.25 |
| ADRH | ≤ 0.25 |
| WHVR | ≤ 0.25 |
| SAGQ | 9.95 |
| PGAY | ≤ 0.25 |
| IWIF | ≤ 0.25 |
| DGQH | ≤ 0.25 |
| ILLN | ≤ 0.25 |
| QCTY | ≤ 0.25 |
| ERLA | ≤ 0.25 |
| MQNL | ≤ 0.25 |
| MKIF | ≤ 0.25 |
| MDKC | ≤ 0.25 |
| DYYP | ≤ 0.25 |
| EGNR | ≤ 0.25 |
| HMHF | ≤ 0.25 |
| EFWS | ≤ 0.25 |
| YFIG | ≤ 0.25 |
| HGMA | ≤ 0.25 |
| MWML | ≤ 0.25 |
| RYHL | ≤ 0.25 |
| QTNN | 6.71 |
| IRKR | ≤ 0.25 |
| IQGQ | ≤ 0.25 |
| TADF | 1.55 |
| MHKI | ≤ 0.25 |

| Variant | enrichment ratio |
| --- | --- |
| YDRY | ≤ 0.25 |
| MRST | ≤ 0.25 |
| HSLI | 10.3 |
| LMRV | ≤ 0.25 |
| LCSK | ≤ 0.25 |
| YMMC | ≤ 0.25 |
| WHTP | ≤ 0.25 |
| ITSL | ≤ 0.25 |
| TNWS | 0.852 |
| VTDF | ≤ 0.25 |
| GPPR | ≤ 0.25 |
| KVNM | ≤ 0.25 |
| TCAI | 5.44 |
| TACD | ≤ 0.25 |
| GYIN | ≤ 0.25 |
| GIHP | ≤ 0.25 |
| EADK | ≤ 0.25 |
| HTRA | ≤ 0.25 |
| VSFL | 2.98 |
| MVTL | 4.61 |
| CCLM | ≤ 0.25 |
| FFNA | ≤ 0.25 |
| VIAG | ≤ 0.25 |
| AMTY | 9.73 |
| YPFL | ≤ 0.25 |
| SALV | 14.6 |

| Variant | enrichment ratio |
| --- | --- |
| YVSK | ≤ 0.25 |
| PYHV | ≤ 0.25 |
| TTYA | 1.14 |
| MKET | ≤ 0.25 |
| KCID | ≤ 0.25 |
| HPSW | ≤ 0.25 |
| RFKL | ≤ 0.25 |
| HHYQ | ≤ 0.25 |
| EQTV | ≤ 0.25 |
| EDMF | ≤ 0.25 |
| MACC | ≤ 0.25 |
| NKVA | ≤ 0.25 |
| QSLH | ≤ 0.25 |
| LGLL | 6.87 |
| TGTD | ≤ 0.25 |
| YGIC | 0.281 |
| KKWD | ≤ 0.25 |
| RATC | ≤ 0.25 |
| DCIS | ≤ 0.25 |
| TDVQ | 5.63 |
| PTHP | ≤ 0.25 |
| AQIR | ≤ 0.25 |
| HFML | ≤ 0.25 |
| ESFF | ≤ 0.25 |
| GPSH | ≤ 0.25 |
| HENY | ≤ 0.25 |

| Variant | enrichment ratio |
| --- | --- |
| LEQT | ≤ 0.25 |
| VQAE | ≤ 0.25 |
| MISQ | 0.426 |
| IGWC | ≤ 0.25 |
| MTMM | 59.5 |
| LPHT | ≤ 0.25 |
| YYNH | ≤ 0.25 |
| FWWF | ≤ 0.25 |
| NEYY | ≤ 0.25 |
| TYTG | 2.49 |
| RAVH | ≤ 0.25 |
| NWTG | ≤ 0.25 |
| GIIL | 1.49 |
| VQDT | ≤ 0.25 |
| EFQI | ≤ 0.25 |
| EFSP | ≤ 0.25 |
| NRFR | ≤ 0.25 |
| GSPF | ≤ 0.25 |
| CIVF | 0.285 |
| MVGN | 10.6 |
| DGLL | ≤ 0.25 |
| RTRG | ≤ 0.25 |
| AYGL | ≤ 0.25 |
| ATVI | 6.44 |
| WAAR | ≤ 0.25 |
| KHLK | ≤ 0.25 |

| Variant | enrichment ratio |
| --- | --- |
| RIST | ≤ 0.25 |
| KYGH | ≤ 0.25 |
| SFPQ | ≤ 0.25 |
| GRSN | ≤ 0.25 |
| QLYI | 1.99 |
| LPWS | ≤ 0.25 |
| LDCM | ≤ 0.25 |
| GNPH | ≤ 0.25 |
| PVMV | ≤ 0.25 |
| LGGF | ≤ 0.25 |
| RDKI | ≤ 0.25 |
| PPDD | ≤ 0.25 |
| EHAR | ≤ 0.25 |
| GWMF | ≤ 0.25 |
| PGQP | ≤ 0.25 |
| EIWI | ≤ 0.25 |
| QDML | ≤ 0.25 |
| YPEC | ≤ 0.25 |
| YKAY | ≤ 0.25 |
| MRTI | 0.883 |
| PWQC | ≤ 0.25 |
| WIAL | ≤ 0.25 |
| WIIF | ≤ 0.25 |
| TNQQ | 6.6 |
| GDWY | ≤ 0.25 |
| LITH | ≤ 0.25 |

| Variant | enrichment ratio |
| --- | --- |
| ICVD | ≤ 0.25 |
| HKKH | ≤ 0.25 |
| QEFM | 18.2 |
| LPCR | ≤ 0.25 |
| PHHV | ≤ 0.25 |
| LYAN | ≤ 0.25 |
| KCNM | ≤ 0.25 |
| IDHQ | ≤ 0.25 |
| PHES | ≤ 0.25 |
| WVWW | ≤ 0.25 |
| PWDV | ≤ 0.25 |
| GQMN | ≤ 0.25 |
| PTYL | ≤ 0.25 |
| EYSQ | ≤ 0.25 |
| DMFS | ≤ 0.25 |
| PWHY | ≤ 0.25 |
| VTHE | ≤ 0.25 |
| EGSK | ≤ 0.25 |
| YNNA | ≤ 0.25 |
| ALPQ | ≤ 0.25 |
| TWDN | ≤ 0.25 |
| QWFF | ≤ 0.25 |
| QGSK | ≤ 0.25 |
